# Assay results as given in the supplement of paper PMC8728848.
# Some of the results follow.
# B1: EEA (Euonymus europaeus) (protein)
# chain: MASTIIATGPTYRVYCRAAPNYNMIVGKGVAFLAPIDETNELQYWYKDDTYSYIKDEAGLPAFSLVNKATGLTLKHSNHHPVPVKLVTYNPNVVDESVLWSQADDRGDGYSAIRSLTNPASHLEAAPLNDWSYNGAIIMGGVWIDAYNQQWKIEPHTG
# Tests used:
# Experiment in all cases: glycan array binding signal (z-score within array); higher = stronger binding
# Conditions in all cases: glycan notation: IUPAC condensed, linker removed
# [1] = molecular target: Neu5Ac(a2-6)Gal(b1-4)GlcNAc(b1-2)Man(a1-6)[Gal(b1-4)GlcNAc(b1-2)Man(a1-3)]Man(b1-4)GlcNAc(b1-4)GlcNAc
# Procedure, shortened: (§1)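 The Consortium for Functional Glycomics database supplied 3228 glycan arrays, of which those lacking an available protein sequence were dropped. The binding signal, a within-array Z-score, was averaged across arrays of the same protein sequence and across linkers. Negative scores can be read as non-binding.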
# [2] = molecular target: Neu5Ac(a2-6)Gal(b1-4)GlcNAc(b1-2)Man(a1-6)[GlcNAc(b1-2)Man(a1-3)]Man(b1-4)GlcNAc(b1-4)GlcNAc
# Procedure, shortened: as §1
# [3] = molecular target: Neu5Ac(a2-6)Gal(b1-4)GlcNAc(b1-2)Man(a1-6)[Man(a1-3)]Man(b1-4)GlcNAc(b1-4)GlcNAc
# Procedure, shortened: as §1
# [4] = molecular target: Neu5Ac(a2-6)Gal(b1-4)GlcNAc(b1-2)[Neu5Ac(a2-6)Gal(b1-4)GlcNAc(b1-4)]Man(a1-3)[GlcNAc(b1-4)][Neu5Ac(a2-6)Gal(b1-4)GlcNAc(b1-2)[Neu5Ac(a2-6)Gal(b1-4)GlcNAc(b1-6)]Man(a1-6)]Man(b1-4)GlcNAc(b1-4)GlcNAc
# Procedure, shortened: as §1
# [5] = molecular target: Neu5Ac(a2-6)Gal(b1-4)GlcNAc(b1-2)[Neu5Ac(a2-6)Gal(b1-4)GlcNAc(b1-4)]Man(a1-3)[GlcNAc(b1-4)][Neu5Ac(a2-6)Gal(b1-4)GlcNAc(b1-4)Man(a1-6)]Man(b1-4)GlcNAc(b1-4)GlcNAc
# Procedure, shortened: as §1
# [6] = molecular target: Neu5Ac(a2-6)Gal(b1-4)GlcNAc(b1-2)[Neu5Ac(a2-6)Gal(b1-4)GlcNAc(b1-6)]Man(a1-6)[Neu5Ac(a2-6)Gal(b1-4)GlcNAc(b1-2)Man(a1-3)][GlcNAc(b1-4)]Man(b1-4)GlcNAc(b1-4)GlcNAc
# Procedure, shortened: as §1
# [7] = molecular target: Neu5Ac(a2-6)Gal(b1-4)GlcNAc(b1-3)Gal(b1-3)GlcNAc
# Procedure, shortened: as §1
# [8] = molecular target: Neu5Ac(a2-6)Gal(b1-4)GlcNAc(b1-3)Gal(b1-4)GlcNAc
# Procedure, shortened: as §1
# [9] = molecular target: Neu5Ac(a2-6)Gal(b1-4)GlcNAc(b1-3)Gal(b1-4)GlcNAc(b1-2)Man(a1-3)[Neu5Ac(a2-6)Gal(b1-4)GlcNAc(b1-3)Gal(b1-4)GlcNAc(b1-2)Man(a1-6)]GalNAc
# Procedure, shortened: as §1
# [10] = molecular target: Neu5Ac(a2-6)Gal(b1-4)GlcNAc(b1-3)Gal(b1-4)GlcNAc(b1-3)Gal(b1-4)GlcNAc
# Procedure, shortened: as §1
# [11] = molecular target: Neu5Ac(a2-6)Gal(b1-4)GlcNAc(b1-3)Gal(b1-4)GlcNAc(b1-3)Gal(b1-4)GlcNAc(b1-2)Man(a1-3)[Neu5Ac(a2-6)Gal(b1-4)GlcNAc(b1-3)Gal(b1-4)GlcNAc(b1-3)Gal(b1-4)GlcNAc(b1-2)Man(a1-6)]GalNAc
# Procedure, shortened: as §1
# [12] = molecular target: Neu5Ac(a2-6)Gal(b1-4)GlcNAc(b1-3)Gal(b1-4)GlcNAc(b1-3)GalNAc
# Procedure, shortened: as §1
# [13] = molecular target: Neu5Ac(a2-6)Gal(b1-4)GlcNAc(b1-3)Gal(b1-4)GlcNAc(b1-3)[Neu5Ac(a2-6)Gal(b1-4)GlcNAc(b1-3)Gal(b1-4)GlcNAc(b1-6)]GalNAc
# Procedure, shortened: as §1
# [14] = molecular target: Neu5Ac(a2-6)Gal(b1-4)GlcNAc(b1-3)Gal(b1-4)GlcNAc(b1-6)[Gal(b1-3)]GalNAc
# Procedure, shortened: as §1
# [15] = molecular target: Neu5Ac(a2-6)Gal(b1-4)GlcNAc(b1-3)Gal(b1-4)[Fuc(a1-3)]GlcNAc(b1-3)Gal(b1-4)[Fuc(a1-3)]GlcNAc
# Procedure, shortened: as §1
# [16] = molecular target: Neu5Ac(a2-6)Gal(b1-4)GlcNAc(b1-3)GalNAc
# Procedure, shortened: as §1
# [17] = molecular target: Neu5Ac(a2-6)Gal(b1-4)GlcNAc(b1-3)[Neu5Ac(a2-6)Gal(b1-4)GlcNAc(b1-6)]GalNAc
# Procedure, shortened: as §1
# [18] = molecular target: Neu5Ac(a2-6)Gal(b1-4)GlcNAc(b1-6)GalNAc
# Procedure, shortened: as §1
# [19] = molecular target: Neu5Ac(a2-6)Gal(b1-4)GlcNAc(b1-6)[Gal(b1-3)GlcNAc(b1-3)]Gal(b1-4)Glc
# Procedure, shortened: as §1
# [20] = molecular target: Neu5Ac(a2-6)Gal(b1-4)GlcNAc(b1-6)[Gal(b1-3)]GalNAc
# Procedure, shortened: as §1
# [21] = molecular target: Neu5Ac(a2-6)Gal(b1-4)GlcNAc6S
# Procedure, shortened: as §1
# Neu5Ac(a2-6)GalNAc = molecular target: Neu5Ac(a2-6)GalNAc
# Procedure, shortened: as §1
# [22] = molecular target: Neu5Ac(a2-6)GalNAc(b1-4)GlcNAc
# Procedure, shortened: as §1
# [23] = molecular target: Neu5Ac(a2-6)GalNAc(b1-4)GlcNAc6S
# Procedure, shortened: as §1
# [24] = molecular target: Neu5Ac(a2-6)GlcNAc(b1-4)GlcNAc
# Procedure, shortened: as §1
# [25] = molecular target: Neu5Ac(a2-6)GlcNAc(b1-4)GlcNAc(b1-4)GlcNAc
# Procedure, shortened: as §1
# Neu5Ac(a2-8)Neu5Ac = molecular target: Neu5Ac(a2-8)Neu5Ac
# Procedure, shortened: as §1
# [26] = molecular target: Neu5Ac(a2-8)Neu5Ac(a2-3)Gal(b1-3)GalNAc(b1-4)[Neu5Ac(a2-3)]Gal(b1-4)Glc
# Procedure, shortened: as §1
# [27] = molecular target: Neu5Ac(a2-8)Neu5Ac(a2-3)Gal(b1-3)GalNAc(b1-4)[Neu5Ac(a2-8)Neu5Ac(a2-3)]Gal(b1-4)Glc
# Procedure, shortened: as §1
# [28] = molecular target: Neu5Ac(a2-8)Neu5Ac(a2-3)Gal(b1-4)Glc
# Procedure, shortened: as §1
# [29] = molecular target: Neu5Ac(a2-8)Neu5Ac(a2-3)Gal(b1-4)GlcNAc
# Procedure, shortened: as §1
# [30] = molecular target: Neu5Ac(a2-8)Neu5Ac(a2-3)[Gal(b1-3)GalNAc(b1-4)]Gal(b1-4)Glc
# Procedure, shortened: as §1
# [31] = molecular target: Neu5Ac(a2-8)Neu5Ac(a2-3)[GalNAc(b1-4)]Gal(b1-4)Glc
# Procedure, shortened: as §1
# [32] = molecular target: Neu5Ac(a2-8)Neu5Ac(a2-8)Neu5Ac
# Procedure, shortened: as §1
# [33] = molecular target: Neu5Ac(a2-8)Neu5Ac(a2-8)Neu5Ac(a2-3)Gal(b1-4)Glc
# Procedure, shortened: as §1
# [34] = molecular target: Neu5Ac(a2-8)Neu5Ac(a2-8)Neu5Ac(a2-3)[Gal(b1-3)GalNAc(b1-4)]Gal(b1-4)Glc
# Procedure, shortened: as §1
# [35] = molecular target: Neu5Ac(a2-8)Neu5Ac(a2-8)Neu5Ac(a2-3)[GalNAc(b1-4)]Gal(b1-4)Glc
# Procedure, shortened: as §1
# [36] = molecular target: Neu5Ac(a2-8)Neu5Ac(a2-8)Neu5Ac(a2-8)Neu5Ac(a2-3)[GalNAc(b1-4)]Gal(b1-4)Glc
# Procedure, shortened: as §1
# [37] = molecular target: Neu5Ac(a2-8)Neu5Gc(a2-3)Gal(b1-4)GlcNAc
# Procedure, shortened: as §1
# Neu5Ac(b1-6)GalNAc = molecular target: Neu5Ac(b1-6)GalNAc
# Procedure, shortened: as §1
# [38] = molecular target: Neu5Ac(b2-6)Gal(b1-4)GlcNAc
# Procedure, shortened: as §1
# Neu5Ac(b2-6)GalNAc = molecular target: Neu5Ac(b2-6)GalNAc
# Procedure, shortened: as §1
# [39] = molecular target: Neu5Ac9Ac(a2-3)Gal(b1-3)GlcNAc
# Procedure, shortened: as §1
# [40] = molecular target: Neu5Ac9Ac(a2-3)Gal(b1-4)GlcNAc
# Procedure, shortened: as §1
# [41] = molecular target: Neu5Ac9Ac(a2-6)Gal(b1-4)GlcNAc
# Procedure, shortened: as §1
binder,measurement,setting,value
B1,glycan array binding signal (z-score),[1],-0.233
same,glycan array binding signal (z-score),[2],-0.206
same,glycan array binding signal (z-score),[3],-0.228
same,glycan array binding signal (z-score),[4],-0.222
same,glycan array binding signal (z-score),[5],-0.246
same,glycan array binding signal (z-score),[6],-0.179
same,glycan array binding signal (z-score),[7],-0.261
same,glycan array binding signal (z-score),[8],-0.212
same,glycan array binding signal (z-score),[9],-0.005
same,glycan array binding signal (z-score),[10],-0.223
same,glycan array binding signal (z-score),[11],0.479
same,glycan array binding signal (z-score),[12],-0.215
same,glycan array binding signal (z-score),[13],0.574
same,glycan array binding signal (z-score),[14],0.132
same,glycan array binding signal (z-score),[15],-0.235
same,glycan array binding signal (z-score),[16],-0.169
same,glycan array binding signal (z-score),[17],-0.086
same,glycan array binding signal (z-score),[18],-0.211
same,glycan array binding signal (z-score),[19],-0.23
same,glycan array binding signal (z-score),[20],-0.067
same,glycan array binding signal (z-score),[21],-0.213
same,glycan array binding signal (z-score),Neu5Ac(a2-6)GalNAc,-0.325
same,glycan array binding signal (z-score),[22],-0.171
same,glycan array binding signal (z-score),[23],-0.23
same,glycan array binding signal (z-score),[24],-0.235
same,glycan array binding signal (z-score),[25],-0.244
same,glycan array binding signal (z-score),Neu5Ac(a2-8)Neu5Ac,-0.192
same,glycan array binding signal (z-score),[26],-0.231
same,glycan array binding signal (z-score),[27],-0.154
same,glycan array binding signal (z-score),[28],-0.341
same,glycan array binding signal (z-score),[29],-0.253
same,glycan array binding signal (z-score),[30],-0.236
same,glycan array binding signal (z-score),[31],-0.154
same,glycan array binding signal (z-score),[32],-0.276
same,glycan array binding signal (z-score),[33],-0.256
same,glycan array binding signal (z-score),[34],-0.175
same,glycan array binding signal (z-score),[35],-0.063
same,glycan array binding signal (z-score),[36],-0.159
same,glycan array binding signal (z-score),[37],-0.119
same,glycan array binding signal (z-score),Neu5Ac(b1-6)GalNAc,-0.319
same,glycan array binding signal (z-score),[38],-0.235
same,glycan array binding signal (z-score),Neu5Ac(b2-6)GalNAc,-0.246
same,glycan array binding signal (z-score),[39],-0.218
same,glycan array binding signal (z-score),[40],-0.029
same,glycan array binding signal (z-score),[41],-0.172
